The subject of experiment [1] is HSkMC (human skeletal muscle cells). As to the kind of experiment: cytotoxicity call (relative viability < 0.9). Conditions: 10 µM.
In experiment [2] the test system is HepG2. As to the kind of experiment: cytotoxicity call (relative viability < 0.9). Conditions: 10 µM.
In experiment [3] the test system is S. aureus RN4220. As to the kind of experiment: growth inhibition call (relative growth <= 0.2). The conditions noted are these: 50 µM.

This is one part of the list.

On to `C[C@@H]1CN([C@@H](C)CO)C(=O)c2cc(NC(=O)Cn3cnnn3)ccc2O[C@H]1CN(C)S(=O)(=O)c1cccs1`, for which the cytotoxicity call in experiment [1] and in experiment [2] was “inactive” each time. Besides, in experiment [3], the growth inhibition call is “inactive”.

Consider `COc1ccc(N2CCCS2(=O)=O)cc1N`, for which the cytotoxicity call in experiment [1] and in experiment [2] was “inactive” in each case. Moreover, the growth inhibition call in experiment [3] was “inactive”.

For the compound `C[C@@H]1CCCCO[C@H](CN(C)S(=O)(=O)c2ccc(Cl)cc2)[C@H](C)CN([C@@H](C)CO)C(=O)c2cc(NC(=O)NC3CCCCC3)ccc2O1`, the cytotoxicity call in experiment [1] and in experiment [2] was “inactive” each time. In addition, in experiment [3], the growth inhibition call was “inactive”.

Consider `C[C@H]1CN([C@@H](C)CO)C(=O)Cc2cc(NC(=O)Nc3cccc4ccccc34)ccc2O[C@H]1CN(C)Cc1ccccc1`, for which the cytotoxicity call in experiment [1] and in experiment [2] was “inactive” throughout. Besides, the growth inhibition call in experiment [3] was “inactive”.

Turning to `C[C@H]1CCCCO[C@H](CN(C)C(=O)Nc2cccc3ccccc23)[C@@H](C)CN([C@@H](C)CO)C(=O)c2cc(NC(=O)CCC(F)(F)F)ccc2O1`, the cytotoxicity call in experiment [1] is “inactive”. The cytotoxicity call in experiment [2] was “active”. Further, the growth inhibition call in experiment [3] is “inactive”.

For the compound `C[C@H](CO)N1C[C@H](C)[C@H](CN(C)S(=O)(=O)c2cccs2)OCCCC[C@H](C)Oc2ccc(NC(=O)Nc3ccccc3)cc2C1=O`, the cytotoxicity call in experiment [1] and in experiment [2] was “inactive” in each case. The growth inhibition call in experiment [3] is “inactive”.

In the case of `C[C@@H]1CN([C@@H](C)CO)S(=O)(=O)c2ccc(C#Cc3ccc(F)cc3)cc2O[C@@H]1CN(C)S(C)(=O)=O`, the cytotoxicity call in experiment [1] and in experiment [2] was “inactive” each time. The growth inhibition call in experiment [3] was “inactive”.

In the case of `C[C@H]1CCCCO[C@H](CN(C)CC2CCCCC2)[C@@H](C)CN([C@@H](C)CO)C(=O)c2cc(NC(=O)Cc3ccccc3)ccc2O1`, the cytotoxicity call in experiment [1] is “inactive”. Further, the cytotoxicity call in experiment [2] is “active”. Further, the growth inhibition call in experiment [3] was “inactive”.

Regarding `O=c1ccc2cc3ccoc3cc2o1`, the cytotoxicity call in experiment [1] and in experiment [2] was “inactive” each time. In experiment [3], the growth inhibition call is “inactive”.

Consider `O=C(CN1CCOCC1)NCC[C@@H]1CC[C@@H](NS(=O)(=O)c2ccc(F)cc2)[C@@H](CO)O1`, for which the cytotoxicity call in experiment [1] and in experiment [2] was “inactive” in each case. Moreover, the growth inhibition call in experiment [3] was “inactive”.

Regarding `C[C@H](CO)N1C[C@H](C)[C@H](CN(C)S(=O)(=O)c2ccc(Cl)cc2)Oc2ccc(NC(=O)Nc3cccc4ccccc34)cc2C1=O`, the cytotoxicity call in experiment [1] and in experiment [2] was “inactive” each time. Moreover, the growth inhibition call in experiment [3] is “inactive”.

For `COC(=O)C1=C(C)NC(C)=C(C(=O)NCCCN2CCC(c3ccccc3)(c3ccccc3)CC2)[C@@H]1c1ccc([N+](=O)[O-])cc1`, the cytotoxicity call in experiment [1] was “inactive”. Besides, the cytotoxicity call in experiment [2] was “active”. Also, the growth inhibition call in experiment [3] was “inactive”.

Take `C#CCOc1ccc(-c2c(C(=O)NC3CCCCC3)oc(OC)c2S(=O)(=O)c2ccc(Cl)cc2)cc1`: in experiment [1], the cytotoxicity call is “inactive”. Further, the cytotoxicity call in experiment [2] was “active”. For the same compound, the growth inhibition call in experiment [3] was “inactive”.

Consider `COc1ccc(NC(=O)Nc2ccc3c(c2)C(=O)N([C@H](C)CO)C[C@H](C)[C@H](CN(C)Cc2ccccc2)OCCCC[C@@H](C)O3)cc1`, for which the cytotoxicity call in experiment [1] and in experiment [2] was “inactive” throughout. Moreover, in experiment [3], the growth inhibition call is “inactive”.

Regarding `C[C@H]1CCCCO[C@H](CN(C)Cc2ccc(C(F)(F)F)cc2)[C@@H](C)CN([C@@H](C)CO)C(=O)c2cc(N(C)C)ccc2O1`, the cytotoxicity call in experiment [1] and in experiment [2] was “inactive” in each case. Further, the growth inhibition call in experiment [3] is “inactive”.

Consider `CC(=O)OCC(=O)C1(O)CCC2C3CCC4=CC(=O)C=CC4(C)C3(F)C(O)CC21C` (stereo not drawn), for which the cytotoxicity call in experiment [1] and in experiment [2] was “inactive” each time. The growth inhibition call in experiment [3] was “inactive”.

On to `CCOC(=O)Nc1nc2ccccc2[nH]1`, for which the cytotoxicity call in experiment [1] and in experiment [2] was “inactive” in each case. The growth inhibition call in experiment [3] is “inactive”.

On to `CCS(=O)(=O)N1Cc2nccn2C[C@H](Cn2ncccc2=O)C1`, for which the cytotoxicity call in experiment [1] and in experiment [2] was “inactive” each time. The growth inhibition call in experiment [3] is “inactive”.

As to `C[C@H]1CN([C@@H](C)CO)S(=O)(=O)c2ccc(C3=CCCCC3)cc2O[C@H]1CN(C)C(=O)C1CCOCC1`, the cytotoxicity call in experiment [1] and in experiment [2] was “inactive” each time. Besides, the growth inhibition call in experiment [3] is “inactive”.

Regarding `CC(C)NC(=O)N(C)C[C@H]1Oc2c(NS(=O)(=O)c3cccs3)cccc2C(=O)N([C@@H](C)CO)C[C@@H]1C`, the cytotoxicity call in experiment [1] and in experiment [2] was “inactive” throughout. Also, the growth inhibition call in experiment [3] was “inactive”.

On to `C[C@@H]1CCCCO[C@H](CN(C)C(=O)c2ccncc2)[C@@H](C)CN([C@@H](C)CO)C(=O)c2cc(NC(=O)NC3CCCCC3)ccc2O1`, for which the cytotoxicity call in experiment [1] and in experiment [2] was “inactive” throughout. The growth inhibition call in experiment [3] is “inactive”.

For `COc1ccc(S(=O)(=O)Nc2ccc3c(c2)[C@H]2C[C@@H](CC(=O)NCC4CC4)O[C@@H](CO)[C@H]2O3)cc1`, the cytotoxicity call in experiment [1] and in experiment [2] was “inactive” in each case. For the same compound, in experiment [3], the growth inhibition call was “inactive”.

As for `COc1ccc(S(=O)(=O)Nc2ccc3c(c2)CC(=O)N([C@H](C)CO)C[C@H](C)[C@H](CN(C)C(=O)Nc2c(C)noc2C)O3)cc1`, the cytotoxicity call in experiment [1] and in experiment [2] was “inactive” in each case. Besides, the growth inhibition call in experiment [3] is “inactive”.

On to `C[C@@H]1CCCCO[C@H](CN(C)C(=O)c2ccccc2)[C@H](C)CN([C@@H](C)CO)C(=O)c2cc(NS(=O)(=O)c3ccc(Cl)cc3)ccc2O1`, for which the cytotoxicity call in experiment [1] and in experiment [2] was “inactive” in each case. The growth inhibition call in experiment [3] is “inactive”.

`C[C@@H]1CN([C@@H](C)CO)C(=O)c2cc(NC(=O)Nc3ccccc3)ccc2O[C@@H](C)CCCCO[C@H]1CN(C)C(=O)Nc1ccccc1`: the cytotoxicity call in experiment [1] and in experiment [2] was “inactive” throughout. For the same compound, the growth inhibition call in experiment [3] was “inactive”.

Regarding `C[C@H](CO)N1C[C@H](C)[C@H](CN(C)C(=O)Nc2ccc(F)cc2)Oc2ncc(Br)cc2C1=O`, the cytotoxicity call in experiment [1] and in experiment [2] was “inactive” each time. For the same compound, the growth inhibition call in experiment [3] is “inactive”.
